Test results taken from paper PMC12136788.
The other results are listed elsewhere or left out.

B1: chr13:42321371:42321394:+|3pUTR|ENSG00000023516|msi1_unk|total|mutant (ssRNA)
RNA: GGGAGUUCUACAGUCCGACGAUCUUCUGUUUAUGGUGUAAUCAUUCUGAGGUGAGGCUUUUCUUAUUUCCUUUGCAUUUUGCCCGAGCUGUGCUGAGUUCAGCAUUUGCUUAUUUAACCACUACAUAAUGACAGACCAGUUAUCAACAGAGGAUUGAGCAUCA
B2: chr5:154419581:154419682:+|3pUTR|ENSG00000164574|msi1|FALSE|unique (ssRNA)
RNA: GGGAGUUCUACAGUCCGACGAUCAAAGGGAUGGGUGUGUCCUCUGAGCACUCUGGCAUUUGUCAUUGCUGAGCCCAUAUCAGUAGGUCCUGGGACUUGACAAAGUAUGUGGGAGGGGAAGGAAGGACAGAACUUGACUGGCUCCAACAGAGGAUUGAGCAUCA
B3: chr16:30603633:30603734:-|3pUTR|ENSG00000156853|unk|total|mutant (ssRNA)
RNA: GGGAGUUCUACAGUCCGACGAUCGUUAAGUACCACAUUCUCCUCUAAACCUUGCCUACGACAUGUUUAAUACUUCAUCUACACCGCAGCCCUUCAGAUAAUCACAACCACUUUGCCCCCAAGUUUUCAGGUUAAGCCGCAUGACAACAGAGGAUUGAGCAUCA
B4: chr10:27170558:27170670:+|CDS|ENSG00000120539|unk|total|mutant (ssRNA)
RNA: GGGAGUUCUACAGUCCGACGAUCCUUAUGUGUGAACUCGAUGAAGACUGUGAAAAGAACCGUAAGAGGGACUACUUAAGUUCCCGUUUUCUAUGUUCUGAUGAUGACCGAGCUUCUAAAAAUAUUUCUAUGAACUCUGAUUCACAACAGAGGAUUGAGCAUCA
B5: chr7:27100353:27100725:-|three_prime_utr|ENSG00000105996|control|control|control (ssRNA)
RNA: GGGAGUUCUACAGUCCGACGAUCUUUUUUAUUUUCUUCUUGACCUACCCCUUCCCUCCUUUAAGUGUUGAGGAUUUUCUGUUUAGUGAUUCCCUGACCCAGUUUCAAACAGAGCCAUCUUUUACAGAUUAUUUUGGAGUUUUACAACAGAGGAUUGAGCAUCA
B6: chr15:44524374:44524475:+|3pUTR|ENSG00000137770|msi1|FALSE|unique (ssRNA)
RNA: GGGAGUUCUACAGUCCGACGAUCUAUCUAUCUCAGAUCGAAUACAUAUAGUAGGUAGGCUAAAACAGAAGAGUCUUUAGAACUAGUGCAACUCCAGUGAAAUUUUUUAUGUACAGGACAUCUGCAGUUUAUAAAGAAUUCUGUCAACAGAGGAUUGAGCAUCA
B7: ENSG00000124766:be:win_2051|3pUTR|ENSG00000124766|bound_else_gene|NA|bound_elsewhere_windowed (ssRNA)
RNA: GGGAGUUCUACAGUCCGACGAUCACGCAGGCGAAUUCCCGUUUGGGGCUUUUUUUUCCUCCCUCUUUUCCCCUUGCCCCCUCUGCAGCCGGAGGAGGAGAUGUUGAGGGGAGGAGGCCAGCCAGUGUGACCGGCGCUAGGAAACAACAGAGGAUUGAGCAUCA
B8: chr11:72288215:72288316:-|3pUTR|ENSG00000162129|unk|FALSE|unique (ssRNA)
RNA: GGGAGUUCUACAGUCCGACGAUCACCCAGCUAAUUUUUUUUGUAUUUUUAGUAAAGACGGGGUUUCACCAUGUUUGCCAGGCUAGUCUCAAACUCCUGGUCUCAAGUGAUCCACCCACCUUGGCCUCCCAGAGUGCUGAGAUUCAACAGAGGAUUGAGCAUCA
B9: chr11:118750849:118750950:-|3pUTR|ENSG00000110367|msi1|total|mutant (ssRNA)
RNA: GGGAGUUCUACAGUCCGACGAUCAUUCCCGAAAGUACUUUGGCCUCGUGCUGCCGAGAGCAGAUUUCUAUGGUACCCUGUGUCCGUAAAGGGGCCCAGAAAUCUGGGAUGUACUGUUUGCUGCCACACUGUCUCAUCCCGUACCAACAGAGGAUUGAGCAUCA
B10: chr15:40213340:40213445:+|CDS|ENSG00000156970|unk|FALSE|unique (ssRNA)
RNA: GGGAGUUCUACAGUCCGACGAUCACACAGUGAAUAUAUUACCCAUGAAAUAACAGUGUUGAUUAUUUAUAACCUUUUGACAAUAGUGGAGAUGCUACACAAAGCAGAAAUAGUCCAUGGUGACUUGAGUCCAAGGUGUCUGAUCAACAGAGGAUUGAGCAUCA
B11: chr3:120396629:120396730:-|3pUTR|ENSG00000163430|msi1|FALSE|unique (ssRNA)
RNA: GGGAGUUCUACAGUCCGACGAUCGCCUUCAUUUCUAGGAGUGCUUUAAGAGAAACUGUAAAUGGUGCUCUGGGGCUGGAGGCUAGUAAGGAAACUGCAUCACGAUUGAAAGAGGAACAGACCCAAAUCUGAACCUCUUUUGAGCAACAGAGGAUUGAGCAUCA
B12: ENSG00000122008:stop:overlap|stop_codon|ENSG00000122008|stop_codon|NA|stop_codon (ssRNA)
RNA: GGGAGUUCUACAGUCCGACGAUCGAGCAUUAUUGGCUUUUUACAGGCUGGAAACCAAGCCCUGUCAGCCACUGAGUGUACAUUAGAGAAAACUGACAAAGAUAAGUUUGUAAAACCUCUAGAAAUGUCUCAUAAGAAGAGUUUCAACAGAGGAUUGAGCAUCA
B13: ENSG00000124766:be:win_1701|3pUTR|ENSG00000124766|bound_else_gene|NA|bound_elsewhere_windowed (ssRNA)
RNA: GGGAGUUCUACAGUCCGACGAUCCUGUGAUUGUUGUUAUUGAUGUUGUUGUUGAUGGCAAAAAAAAAAAAGCGACUUCGAGUUUGCUCCCCUUUGCUUGAAGAGACCCCCUCCCCCUUCCAACGAGCUUCCGGACUUGUCUGCCAACAGAGGAUUGAGCAUCA
B14: chr6:11183581:11183682:-|3pUTR|ENSG00000111859|msi1|total|mutant (ssRNA)
RNA: GGGAGUUCUACAGUCCGACGAUCAAAACAAGAAUGCAUGAUCUCAGAGUGAUUAAAAAAAAAUCAGUGGAAAUAAAUGAUCACCGAAGGUGCUUUUCAAAACAACUGCUAUUAUAAUUCUCAAAGUCCUACUCUGCCAAAAGACAACAGAGGAUUGAGCAUCA
B15: chr12:24811411:24811512:-|3pUTR|ENSG00000060982|msi1|total|mutant (ssRNA)
RNA: GGGAGUUCUACAGUCCGACGAUCGUGAAGAACUCUAUAUUUGUAUGUUGAGAGGGCAUGGAAUAAUUGUAUUUUGCUGGCAACCGACACAUUCUUUAUUAUUUGCAGAUUCCUCAUCAAAUCUGUAAUUAUGCACAGUUUCUGCAACAGAGGAUUGAGCAUCA
B16: chr12:109850944:109852737:-|three_prime_utr|ENSG00000139433|control|control|control (ssRNA)
RNA: GGGAGUUCUACAGUCCGACGAUCGCUCUCCAAGGGGCAGAAUGUUACGGAGGAGGAGUGCCUGGAGAAGAUCCGCCUCUUCCUAGUCAACUACACGGCGACCAUCGAUGUCAUCUACGAGAUGUACACCCAGAUGAACGCUGACAACAGAGGAUUGAGCAUCA
B17: chr21:42918526:42919006:-|CDS|ENSG00000233056|control|control|control (ssRNA)
RNA: GGGAGUUCUACAGUCCGACGAUCAAUUGGACAAUGGGGAGUAAACACUCAGGUGCUUGAGGACAUAAAGAGAGAACAGAUUAUAGCCAAAGCCAAAGCCUCAAAACCAACAACUCCCCCUGAAAAUCGCCCGCGGCAUUUCCACAACAGAGGAUUGAGCAUCA
B18: ENSG00000144824:stop:overlap|stop_codon|ENSG00000144824|stop_codon|NA|stop_codon (ssRNA)
RNA: GGGAGUUCUACAGUCCGACGAUCUGCGGAUCUGGAUGGAUGUUAUAGUUACGGGGGCAGAAGGUUACACUCACUUCUUGUUGUAGUGAACUGAGGCAACAGUCCACUUCAGGGCAGACGGCAAUAAUCUCUUACAAGAAUGAACAACAGAGGAUUGAGCAUCA
B19: chr10:119167843:119167906:-|3pUTR|ENSG00000165672|msi1_unk|FALSE|overlapping (ssRNA)
RNA: GGGAGUUCUACAGUCCGACGAUCUGCAUGAUCCCUCAUCCCUGAAAUUGAGUUUAUGUAGUCAUUUUACUUAUUUUAUUCAUUAGCUAACUUUGUCUAUGUAUAUUUCUAGAUAUUGAUUAGUGUAAUCGAUUAUAAAGGAUACAACAGAGGAUUGAGCAUCA
B20: chr1:112701350:112701454:-|3pUTR|ENSG00000155366|unk|FALSE|unique (ssRNA)
RNA: GGGAGUUCUACAGUCCGACGAUCGGCUCCAUGCUGAAGGCUCCCAUUUUCAGUUCCCUCCUGCCCAGGACUGCAUUGUUUUCUAGCCCCGAGGUGGUGGCACGGGCCCUCCCUCCCAGCGCUCUGGGAGCCACGCCUAUGCCCCAACAGAGGAUUGAGCAUCA
B21: chr1:154584646:154584747:-|3pUTR|ENSG00000160710|unk|FALSE|unique (ssRNA)
RNA: GGGAGUUCUACAGUCCGACGAUCAUGCUCCAGUGACAGAUGGAUUAGGGUGUGUCAUACUAGGGUGUGAGAGAGGUAGGUCGUAGCAUUCCUCAUCACAUGGUCAGGGGAUUUUUUUUUCUCCUUUUUUUUUCUUUUUAAGCCCAACAGAGGAUUGAGCAUCA
B22: ENSG00000110756:stop:overlap|stop_codon|ENSG00000110756|stop_codon|NA|stop_codon (ssRNA)
RNA: GGGAGUUCUACAGUCCGACGAUCGGGCCUUGAUACAAAGCAUGCUUGAAAAAUGCGAUCGGUUUCUCUGGUCCCAGCAGGCCUAGUGGGAGAAGAUUCAGCAGGAUGUCAUGACAUUUUGAGAAAAACUAAAUCAUGCUCCUGCAACAGAGGAUUGAGCAUCA

molecular target: MSI1 full-length (mouse, UniProt Q61474 1-362); experiment: nsRBNS (natural sequence RNA bind-n-seq); RBNS binding buffer (assumed for nsRBNS): 25 mM Tris pH 7.5, 150 mM KCl, 3 mM MgCl2, 0.01% Triton X-100, 500 ug/ml BSA, 20 U/ml SUPERase-In, 4 C; UNK is unkempt and MSI1 is Musashi-1; names of the RNAs are library labels; protein concentration not given here; high values mean tight binding
UniProt Q61474, sequence (Q61474 whole entry): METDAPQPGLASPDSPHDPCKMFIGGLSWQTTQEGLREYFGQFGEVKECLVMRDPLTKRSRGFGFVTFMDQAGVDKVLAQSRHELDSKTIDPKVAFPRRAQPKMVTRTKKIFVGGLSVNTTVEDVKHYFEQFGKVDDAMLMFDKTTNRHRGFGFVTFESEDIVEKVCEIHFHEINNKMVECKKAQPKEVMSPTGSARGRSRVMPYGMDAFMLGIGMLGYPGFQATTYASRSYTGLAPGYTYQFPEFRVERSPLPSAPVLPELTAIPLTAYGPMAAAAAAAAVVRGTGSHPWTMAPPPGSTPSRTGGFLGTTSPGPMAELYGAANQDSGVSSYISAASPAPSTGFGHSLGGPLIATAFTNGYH

Row | Binder | binding signal
1 | B1 | 0.543 enrichment R
2 | B2 | 0.52 enrichment R
3 | B3 | 1.38 enrichment R
4 | B4 | 0.259 enrichment R
5 | B5 | 0.878 enrichment R
6 | B6 | 14.9 enrichment R
7 | B7 | 0.368 enrichment R
8 | B8 | 1.88 enrichment R
9 | B9 | 0.539 enrichment R
10 | B10 | 2.09 enrichment R
11 | B11 | 0.366 enrichment R
12 | B12 | 0.332 enrichment R
13 | B13 | 0.457 enrichment R
14 | B14 | 0.317 enrichment R
15 | B15 | 0.667 enrichment R
16 | B16 | 0.314 enrichment R
17 | B17 | 4.2 enrichment R
18 | B18 | 0.781 enrichment R
19 | B19 | 1.93 enrichment R
20 | B20 | 0.498 enrichment R
21 | B21 | 1.31 enrichment R
22 | B22 | 0.778 enrichment R
